{"source": "the supplement of paper PMC9990464", "note": "Structures can show the parent of a compound that is named as a salt. The list shows a part of the results. Many values rest on one well or one pass, so single values are uncertain.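 Also: KCNR is a neuroblastoma cell line carrying an ALK mutation, in this DMSO arm without trametinib, viability was normalised to solvent-treated cells.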", "data": [{"system": "SJNB8", "assay": "area under viability curve (10 nM-1 µM), viability relative to solvent or trametinib-only control (AUC (arbitrary, % viability x concentration range)); higher = less growth inhibition (more viable cells)", "details": "72 h compound exposure (96 h after seeding) h; trametinib co-treatment 0 µM", "description": "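Four neuroblastoma cell lines (KCNR, SKNBE, SJNB8, SKNAS) were seeded in 384-well plates. At 24 h, 1 µM trametinib or DMSO was added, followed by library compounds at 10 nM, 100 nM and 1 µM. Viability was read by MTT at 96 h and normalised to solvent-treated cells (DMSO arm) or to trametinib-only cells (trametinib arm). The area under the 3-point viability curve was computed in GraphPad Prism; units are as given (approx. 100000 = no effect).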", "values": [{"smiles": "N[C@@H]1C[C@H]1c1ccccc1.N[C@H]1C[C@@H]1c1ccccc1", "note": "[Tranylcypromine hemisulfate]", "area under viability curve": 92000}, {"smiles": "CC(=O)Oc1ccc(/C=C/c2cc(OC(C)=O)cc(OC(C)=O)c2)cc1", "note": "[Triacetylresveratrol]", "area under viability curve": 86800}, {"smiles": "C[C@]12CC[C@@H]3c4ccc(OC(=O)N(CCCl)CCCl)cc4CC[C@H]3[C@@H]1CC[C@@H]2OP(=O)(O)O", "note": "[Estramustine phosphate sodium]", "area under viability curve": 65000}, {"smiles": "CC[C@@]1([C@H]2O[C@H]([C@H]3O[C@@](O)(CO)[C@H](C)C[C@@H]3C)C[C@H]2C)CC[C@H]([C@@]2(C)CC[C@]3(C[C@H](O)[C@@H](C)[C@@H]([C@H](C)[C@H](OC)[C@@H](C)C(=O)O)O3)O2)O1", "note": "[Monensin sodium]", "area under viability curve": 80400}, {"smiles": "CCC(=O)CCCCC[C@@H]1NC(=O)[C@H]2CCCCN2C(=O)[C@H]([C@@H](C)CC)NC(=O)[C@H](Cc2cn(OC)c3ccccc23)NC1=O", "note": "[Apicidin]", "area under viability curve": 76100}, {"smiles": "C=C1C[C@@H]2[C@H](CC[C@]3(C)C(=O)CC[C@@H]23)[C@@]2(C)C=CC(=O)C=C12", "note": "[Exemestane]", "area under viability curve": 88500}, {"smiles": "C[C@]12CCC(=O)C(O)=C1CC[C@@H]1[C@@H]2CC[C@]2(C)C(=O)CC[C@@H]12", "note": "[Formestane]", "area under viability curve": 91500}, {"smiles": "Cc1ncc(CNC(=O)N(CCCl)N=O)c(N)n1", "note": "[Nimustine HCl]", "area under viability curve": 107000}, {"smiles": "O=C(O)c1nn(Cc2ccc(Cl)cc2Cl)c2ccccc12", "note": "[Lonidamine]", "area under viability curve": 101000}, {"smiles": "N[C@@H](Cc1ccc(N(CCCl)CCCl)cc1)C(=O)O", "note": "[Melphalan]", "area under viability curve": 94800}, {"smiles": "N.N.[Cl][Pt][Cl]", "note": "[Cisplatin]", "area under viability curve": 105000}, {"smiles": "CC[C@H](Nc1nc(NCc2cnc(C)cc2C)c2ncn(C(C)C)c2n1)[C@@H](C)O", "note": "[Fadraciclib]", "area under viability curve": 87400}]}]}
